Measured values taken from patent publication US20220204587A1.
Values belong to the binder of their own block, whether it stands above or below them.

Assays:
Test in all cases: cell-based or functional assay
TGF-β1 = TGF-β1 (UniProt P01137)
TGF-β2 = target: T1, TGF-β2 (UniProt P61812)
T1 sequence (looked up): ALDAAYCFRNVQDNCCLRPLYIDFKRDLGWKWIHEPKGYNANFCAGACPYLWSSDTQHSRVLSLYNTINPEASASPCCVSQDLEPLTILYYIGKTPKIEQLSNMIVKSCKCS

TGF-β3 = TGF-β3 (UniProt P10600)
UniProt P10600, sequence (P10600 301-412 limits assumed): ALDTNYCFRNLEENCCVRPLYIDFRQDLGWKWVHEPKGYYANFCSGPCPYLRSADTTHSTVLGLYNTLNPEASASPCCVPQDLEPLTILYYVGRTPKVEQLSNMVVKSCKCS

UniProt P01137, sequence (P01137 279-390 limits assumed): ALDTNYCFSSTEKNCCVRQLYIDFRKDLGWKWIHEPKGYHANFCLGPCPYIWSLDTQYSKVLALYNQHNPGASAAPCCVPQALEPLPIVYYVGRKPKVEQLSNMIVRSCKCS

IC50 (nM), neutralization of TGF-β1-induced IL-11 release by A549 cells (TGF-β1): 0.00213 nM
B1: T22d35-Fc-IgG1-v2 (SCC) (Fc fusion)
chain: IPPHVQKSVNNDMIVTDNNGAVKFPQLCKFCDVRFSTCDNQKSCMSNCSITSICEKPQEVCVAVWRKNDENITLETVCHDPKLPYHDFILEDAASPKCIMKEKKKPGETFFMCSCSSDECNDNIIFSEEYNTSNPDIPPHVQKSVNNDMIVTDNNGAVKFPQLCKFCDVRFSTCDNQKSCMSNCSITSICEKPQEVCVAVWRKNDENITLETVCHDPKLPYHDFILEDAASPKCIMKEKKKPGETFFMCSCSSDECNDNIIFSEEYNTSNPDV[human IgG1 Fc with changes cut from this listing]

IC50 (nM), neutralization of TGF-β1-induced IL-11 release by A549 cells (TGF-β1): 0.00248 nM
B2: T22d35-Fc-IgG1-v3 (GSL-CC) (Fc fusion)
chain: IPPHVQKSVNNDMIVTDNNGAVKFPQLCKFCDVRFSTCDNQKSCMSNCSITSICEKPQEVCVAVWRKNDENITLETVCHDPKLPYHDFILEDAASPKCIMKEKKKPGETFFMCSCSSDECNDNIIFSEEYNTSNPDIPPHVQKSVNNDMIVTDNNGAVKFPQLCKFCDVRFSTCDNQKSCMSNCSITSICEKPQEVCVAVWRKNDENITLETVCHDPKLPYHDFILEDAASPKCIMKEKKKPGETFFMCSCSSDECNDNIIFSEEYNTSNPDGGGSGGGSG[human IgG1 Fc and a few adjoining residues cut from this listing]

IC50, neutralization of TGF-β-induced IL-11 release by A549 cells (FIG. 9) (TGF-β2): 17300 pM | IC50, neutralization of TGF-β-induced IL-11 release by A549 cells (FIG. 9) (TGF-β3): 3.25 pM | IC50 (nM), neutralization of TGF-β1-induced IL-11 release by A549 cells (TGF-β1): 0.00234 nM | IC50, neutralization of TGF-β-induced IL-11 release by A549 cells (FIG. 9) (TGF-β1): 3.33 pM
B3: T22d35-Fc-IgG1-v1 (CC) (Fc fusion)
chain: IPPHVQKSVNNDMIVTDNNGAVKFPQLCKFCDVRFSTCDNQKSCMSNCSITSICEKPQEVCVAVWRKNDENITLETVCHDPKLPYHDFILEDAASPKCIMKEKKKPGETFFMCSCSSDECNDNIIFSEEYNTSNPDIPPHVQKSVNNDMIVTDNNGAVKFPQLCKFCDVRFSTCDNQKSCMSNCSITSICEKPQEVCVAVWRKNDENITLETVCHDPKLPYHDFILEDAASPKCIMKEKKKPGETFFMCSCSSDECNDNIIFSEEYNTSN[human IgG1 Fc and a few adjoining residues cut from this listing]
